The source of these data is the supplement of paper PMC12217912.

Sequences and labels used below:
B1: TEV protease; numbered along this chain (parent)
chain: MGESLFKGPRDYNPISSSICHLTNESDGHTTSLYGIGFGPFIITNKHLFRRNNGTLVVQSLHGVFKVKDTTTLQQHLVDGRDMIIIRMPKDFPPFPQKLKFREPQREERICLVTTNFQTKSMSSMVSDTSCTFPSGDGIFWKHWIQTKDGQCGSPLVSTRDGFIVGIHSASNFTNTNNYFTSVPKNFMELLTNQEAQQWVSGWRLNADSVLWGGHKVFMVKPEEPFQPVKEATQL

This is one part of the list. Sequences were assembled here from the parent chain. Inactive controls read about 0.05.

The assay covers variants of B1. Description: raw area under fraction-flipped curve 0-4 h after induction (AUC4h, not background-subtracted), DNA-recorder readout of cleavage of the substrate (dimensionless); higher = more cleavage of the substrate by the protease variant. To be noted: temperature: 34 °C; time window: 0-4 h after rhamnose induction. The procedure: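 In vivo DNA recorder in E. coli TOP10(DE3) ΔrhaA at 34 °C. Each TEVp single-site mutant (parent TEVp 0) is paired with a single-site variant of the 7-mer TEVs (canonical ENLYFQ|S). The substrate sits between flexible linkers in a Bxb1-sfGFP-TEVs-SsrA fusion, so cleavage stabilises Bxb1 and speeds flipping of a recombination array, read by NGS. The value is the raw area under the fraction-flipped curve over 0-4 h after rhamnose induction (AUC4h), with ≥20 reads per time point. It is not background-subtracted; inactive controls average about 0.047.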
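Also: Bxb1 expression induced with 0.2% (w/v) L-rhamnose at OD600 near 0.5, cultures sampled hourly, flipped fraction per protease–substrate barcode pair counted by paired-end Illumina sequencing.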

Consider MGESLFKGPTDYNPISSSICHLTNESDGHTTSLYGIGFGPFIITNKHLFRRNNGTLVVQSLHGVFKVKDTTTLQQHLVDGRDMIIIRMPKDFPPFPQKLKFREPQREERICLVTTNFQTKSMSSMVSDTSCTFPSGDGIFWKHWIQTKDGQCGSPLVSTRDGFIVGIHSASNFTNTNNYFTSVPKNFMELLTNQEAQQWVSGWRLNADSVLWGGHKVFMVKPEEPFQPVKEATQL [R10T], for which the “area with substrate EALYFQS” value turned out to be 0.126, the “area with substrate EDLYFQS” value worked out at 0.16, the “area with substrate EELYFQS” value was found to be 0.121 and the “area with substrate EGLYFQS” value is 0.0914. Further, the “area with substrate EHLYFQS” value is 0.101, the “area with substrate EILYFQS” value was found to be 0.0935, the “area with substrate EKLYFQS” value was found to be 0.117 and the “area with substrate ELLYFQS” value is 0.108. Moreover, the “area with substrate EMLYFQS” value was found to be 0.111, the “area with substrate EQLYFQS” value came out at 0.108, the “area with substrate ERLYFQS” value came to 0.105 and the “area with substrate ESLYFQS” value is 0.0965.

As to MGESLFKGPYDYNPISSSICHLTNESDGHTTSLYGIGFGPFIITNKHLFRRNNGTLVVQSLHGVFKVKDTTTLQQHLVDGRDMIIIRMPKDFPPFPQKLKFREPQREERICLVTTNFQTKSMSSMVSDTSCTFPSGDGIFWKHWIQTKDGQCGSPLVSTRDGFIVGIHSASNFTNTNNYFTSVPKNFMELLTNQEAQQWVSGWRLNADSVLWGGHKVFMVKPEEPFQPVKEATQL [R10Y], the “area with substrate EALYFQS” value amounted to 0.0574, the “area with substrate EDLYFQS” value came out at 0.0863, the “area with substrate EGLYFQS” value is 0.0845 and the “area with substrate EHLYFQS” value came out at 0.0634. Also, the “area with substrate EILYFQS” value is 0.0717, the “area with substrate EKLYFQS” value was 0.0936, the “area with substrate ELLYFQS” value amounted to 0.0824 and the “area with substrate EMLYFQS” value turned out to be 0.0899. Besides, the “area with substrate EQLYFQS” value came to 0.0958, the “area with substrate ERLYFQS” value is 0.0756, the “area with substrate ETLYFQS” value was 0.0885 and the “area with substrate EVLYFQS” value amounted to 0.0844. In addition, the “area with substrate EWLYFQS” value stood at 0.0789 and the “area with substrate EYLYFQS” value was 0.0854.

With MGESLFKGPRCYNPISSSICHLTNESDGHTTSLYGIGFGPFIITNKHLFRRNNGTLVVQSLHGVFKVKDTTTLQQHLVDGRDMIIIRMPKDFPPFPQKLKFREPQREERICLVTTNFQTKSMSSMVSDTSCTFPSGDGIFWKHWIQTKDGQCGSPLVSTRDGFIVGIHSASNFTNTNNYFTSVPKNFMELLTNQEAQQWVSGWRLNADSVLWGGHKVFMVKPEEPFQPVKEATQL [D11C], the “area with substrate EALYFQS” value was 0.112, the “area with substrate EDLYFQS” value was found to be 0.139, the “area with substrate EELYFQS” value came to 0.13 and the “area with substrate EGLYFQS” value was found to be 0.11. Besides, the “area with substrate EILYFQS” value worked out at 0.0783, the “area with substrate EKLYFQS” value was found to be 0.0933, the “area with substrate ELLYFQS” value came out at 0.112 and the “area with substrate EMLYFQS” value came to 0.103. In addition, the “area with substrate EQLYFQS” value was found to be 0.135, the “area with substrate ERLYFQS” value stood at 0.0991, the “area with substrate ESLYFQS” value was found to be 0.0935 and the “area with substrate ETLYFQS” value stood at 0.0994. Further, the “area with substrate EVLYFQS” value was found to be 0.098.

Turning to MGESLFKGPRDYNPISSSICHLTNESDGHTTSLSGIGFGPFIITNKHLFRRNNGTLVVQSLHGVFKVKDTTTLQQHLVDGRDMIIIRMPKDFPPFPQKLKFREPQREERICLVTTNFQTKSMSSMVSDTSCTFPSGDGIFWKHWIQTKDGQCGSPLVSTRDGFIVGIHSASNFTNTNNYFTSVPKNFMELLTNQEAQQWVSGWRLNADSVLWGGHKVFMVKPEEPFQPVKEATQL [Y34S], the “area with substrate EALYFQS” value is 0.0902, the “area with substrate EDLYFQS” value was found to be 0.136, the “area with substrate EELYFQS” value is 0.0913 and the “area with substrate EGLYFQS” value is 0.102. Besides, the “area with substrate EHLYFQS” value was found to be 0.154, the “area with substrate EILYFQS” value was found to be 0.0797, the “area with substrate EKLYFQS” value is 0.0465 and the “area with substrate ELLYFQS” value came to 0.0829. The “area with substrate EQLYFQS” value turned out to be 0.0942, the “area with substrate ERLYFQS” value was 0.0957, the “area with substrate ESLYFQS” value came to 0.0907 and the “area with substrate EVLYFQS” value was 0.0759. Moreover, the “area with substrate EWLYFQS” value was found to be 0.0849.

In the case of MGESLFKGPRDYNPISSSICHLTNESDGHTTSLAGIGFGPFIITNKHLFRRNNGTLVVQSLHGVFKVKDTTTLQQHLVDGRDMIIIRMPKDFPPFPQKLKFREPQREERICLVTTNFQTKSMSSMVSDTSCTFPSGDGIFWKHWIQTKDGQCGSPLVSTRDGFIVGIHSASNFTNTNNYFTSVPKNFMELLTNQEAQQWVSGWRLNADSVLWGGHKVFMVKPEEPFQPVKEATQL [Y34A], the “area with substrate EALYFQS” value was 0.145, the “area with substrate EDLYFQS” value turned out to be 0.0871, the “area with substrate EGLYFQS” value came out at 0.0603 and the “area with substrate EILYFQS” value came to 0.0941. Besides, the “area with substrate EKLYFQS” value amounted to 0.0878, the “area with substrate ELLYFQS” value is 0.0669, the “area with substrate ERLYFQS” value was found to be 0.0551 and the “area with substrate ESLYFQS” value came to 0.114. Besides, the “area with substrate EWLYFQS” value is 0.0784.

In the case of MGESLFKGPRDYNPISSHICHLTNESDGHTTSLYGIGFGPFIITNKHLFRRNNGTLVVQSLHGVFKVKDTTTLQQHLVDGRDMIIIRMPKDFPPFPQKLKFREPQREERICLVTTNFQTKSMSSMVSDTSCTFPSGDGIFWKHWIQTKDGQCGSPLVSTRDGFIVGIHSASNFTNTNNYFTSVPKNFMELLTNQEAQQWVSGWRLNADSVLWGGHKVFMVKPEEPFQPVKEATQL [S18H], the “area with substrate EALYFQS” value is 0.15, the “area with substrate ECLYFQS” value stood at 0.102, the “area with substrate EELYFQS” value turned out to be 0.121 and the “area with substrate EKLYFQS” value amounted to 0.123. Further, the “area with substrate ELLYFQS” value turned out to be 0.0825, the “area with substrate EMLYFQS” value came out at 0.116, the “area with substrate EPLYFQS” value amounted to 0.12 and the “area with substrate EQLYFQS” value was 0.131. In addition, the “area with substrate ERLYFQS” value amounted to 0.105, the “area with substrate ESLYFQS” value was determined as 0.0956 and the “area with substrate EVLYFQS” value came out at 0.0791.

Consider MGESLFKGPRDYNPISSSICHLTNESDGHTTSLYGIYFGPFIITNKHLFRRNNGTLVVQSLHGVFKVKDTTTLQQHLVDGRDMIIIRMPKDFPPFPQKLKFREPQREERICLVTTNFQTKSMSSMVSDTSCTFPSGDGIFWKHWIQTKDGQCGSPLVSTRDGFIVGIHSASNFTNTNNYFTSVPKNFMELLTNQEAQQWVSGWRLNADSVLWGGHKVFMVKPEEPFQPVKEATQL [G37Y], for which the “area with substrate EALYFQS” value amounted to 0.0623, the “area with substrate ECLYFQS” value amounted to 0.0643, the “area with substrate EILYFQS” value came out at 0 and the “area with substrate EKLYFQS” value worked out at 0.0708. The “area with substrate ELLYFQS” value worked out at 0.0501, the “area with substrate EMLYFQS” value is 0.0724, the “area with substrate EPLYFQS” value came to 0.0728 and the “area with substrate ERLYFQS” value turned out to be 0.0707. For the same variant, the “area with substrate ESLYFQS” value amounted to 0.0609, the “area with substrate ETLYFQS” value turned out to be 0.0591, the “area with substrate EWLYFQS” value was 0.0661 and the “area with substrate EYLYFQS” value was 0.0783.

For MGESLFKGPRDYNPISSSICHLTNHSDGHTTSLYGIGFGPFIITNKHLFRRNNGTLVVQSLHGVFKVKDTTTLQQHLVDGRDMIIIRMPKDFPPFPQKLKFREPQREERICLVTTNFQTKSMSSMVSDTSCTFPSGDGIFWKHWIQTKDGQCGSPLVSTRDGFIVGIHSASNFTNTNNYFTSVPKNFMELLTNQEAQQWVSGWRLNADSVLWGGHKVFMVKPEEPFQPVKEATQL [E25H], the “area with substrate EALYFQS” value is 0.145, the “area with substrate ECLYFQS” value was 0.116, the “area with substrate EGLYFQS” value stood at 0.104 and the “area with substrate EHLYFQS” value came to 0.102. In addition, the “area with substrate EILYFQS” value was 0.112, the “area with substrate EKLYFQS” value was 0.105, the “area with substrate EPLYFQS” value turned out to be 0.172 and the “area with substrate ERLYFQS” value was 0.103. The “area with substrate ESLYFQS” value was 0.114, the “area with substrate ETLYFQS” value was 0.0866, the “area with substrate EVLYFQS” value is 0.111 and the “area with substrate EWLYFQS” value amounted to 0.105.

With MGESLFKGPRDYNPISSSICHLTNMSDGHTTSLYGIGFGPFIITNKHLFRRNNGTLVVQSLHGVFKVKDTTTLQQHLVDGRDMIIIRMPKDFPPFPQKLKFREPQREERICLVTTNFQTKSMSSMVSDTSCTFPSGDGIFWKHWIQTKDGQCGSPLVSTRDGFIVGIHSASNFTNTNNYFTSVPKNFMELLTNQEAQQWVSGWRLNADSVLWGGHKVFMVKPEEPFQPVKEATQL [E25M], the “area with substrate EALYFQS” value came to 0.138, the “area with substrate EELYFQS” value is 0.129, the “area with substrate EGLYFQS” value came to 0.102 and the “area with substrate EILYFQS” value came out at 0.0927. In addition, the “area with substrate EKLYFQS” value was found to be 0.108, the “area with substrate ELLYFQS” value turned out to be 0.0718, the “area with substrate EPLYFQS” value was 0.118 and the “area with substrate EQLYFQS” value came out at 0.0775. The “area with substrate ERLYFQS” value was determined as 0.0985, the “area with substrate ESLYFQS” value was 0.112, the “area with substrate EVLYFQS” value is 0.109 and the “area with substrate EWLYFQS” value was 0.035.
